Assay results taken from paper PMC12143978.
These are yes or no findings as the source states them, for the method shown. In cells and extracts the contact can be indirect. Some results given as binding are weak or reduced against the parent protein; the word gives no strength. For some of these results: Where a sequence is shown, tags or fusion partners need not be part of it.

The chains behind the UniProt entries cited, without tags or fusion partners.
UniProt P78527: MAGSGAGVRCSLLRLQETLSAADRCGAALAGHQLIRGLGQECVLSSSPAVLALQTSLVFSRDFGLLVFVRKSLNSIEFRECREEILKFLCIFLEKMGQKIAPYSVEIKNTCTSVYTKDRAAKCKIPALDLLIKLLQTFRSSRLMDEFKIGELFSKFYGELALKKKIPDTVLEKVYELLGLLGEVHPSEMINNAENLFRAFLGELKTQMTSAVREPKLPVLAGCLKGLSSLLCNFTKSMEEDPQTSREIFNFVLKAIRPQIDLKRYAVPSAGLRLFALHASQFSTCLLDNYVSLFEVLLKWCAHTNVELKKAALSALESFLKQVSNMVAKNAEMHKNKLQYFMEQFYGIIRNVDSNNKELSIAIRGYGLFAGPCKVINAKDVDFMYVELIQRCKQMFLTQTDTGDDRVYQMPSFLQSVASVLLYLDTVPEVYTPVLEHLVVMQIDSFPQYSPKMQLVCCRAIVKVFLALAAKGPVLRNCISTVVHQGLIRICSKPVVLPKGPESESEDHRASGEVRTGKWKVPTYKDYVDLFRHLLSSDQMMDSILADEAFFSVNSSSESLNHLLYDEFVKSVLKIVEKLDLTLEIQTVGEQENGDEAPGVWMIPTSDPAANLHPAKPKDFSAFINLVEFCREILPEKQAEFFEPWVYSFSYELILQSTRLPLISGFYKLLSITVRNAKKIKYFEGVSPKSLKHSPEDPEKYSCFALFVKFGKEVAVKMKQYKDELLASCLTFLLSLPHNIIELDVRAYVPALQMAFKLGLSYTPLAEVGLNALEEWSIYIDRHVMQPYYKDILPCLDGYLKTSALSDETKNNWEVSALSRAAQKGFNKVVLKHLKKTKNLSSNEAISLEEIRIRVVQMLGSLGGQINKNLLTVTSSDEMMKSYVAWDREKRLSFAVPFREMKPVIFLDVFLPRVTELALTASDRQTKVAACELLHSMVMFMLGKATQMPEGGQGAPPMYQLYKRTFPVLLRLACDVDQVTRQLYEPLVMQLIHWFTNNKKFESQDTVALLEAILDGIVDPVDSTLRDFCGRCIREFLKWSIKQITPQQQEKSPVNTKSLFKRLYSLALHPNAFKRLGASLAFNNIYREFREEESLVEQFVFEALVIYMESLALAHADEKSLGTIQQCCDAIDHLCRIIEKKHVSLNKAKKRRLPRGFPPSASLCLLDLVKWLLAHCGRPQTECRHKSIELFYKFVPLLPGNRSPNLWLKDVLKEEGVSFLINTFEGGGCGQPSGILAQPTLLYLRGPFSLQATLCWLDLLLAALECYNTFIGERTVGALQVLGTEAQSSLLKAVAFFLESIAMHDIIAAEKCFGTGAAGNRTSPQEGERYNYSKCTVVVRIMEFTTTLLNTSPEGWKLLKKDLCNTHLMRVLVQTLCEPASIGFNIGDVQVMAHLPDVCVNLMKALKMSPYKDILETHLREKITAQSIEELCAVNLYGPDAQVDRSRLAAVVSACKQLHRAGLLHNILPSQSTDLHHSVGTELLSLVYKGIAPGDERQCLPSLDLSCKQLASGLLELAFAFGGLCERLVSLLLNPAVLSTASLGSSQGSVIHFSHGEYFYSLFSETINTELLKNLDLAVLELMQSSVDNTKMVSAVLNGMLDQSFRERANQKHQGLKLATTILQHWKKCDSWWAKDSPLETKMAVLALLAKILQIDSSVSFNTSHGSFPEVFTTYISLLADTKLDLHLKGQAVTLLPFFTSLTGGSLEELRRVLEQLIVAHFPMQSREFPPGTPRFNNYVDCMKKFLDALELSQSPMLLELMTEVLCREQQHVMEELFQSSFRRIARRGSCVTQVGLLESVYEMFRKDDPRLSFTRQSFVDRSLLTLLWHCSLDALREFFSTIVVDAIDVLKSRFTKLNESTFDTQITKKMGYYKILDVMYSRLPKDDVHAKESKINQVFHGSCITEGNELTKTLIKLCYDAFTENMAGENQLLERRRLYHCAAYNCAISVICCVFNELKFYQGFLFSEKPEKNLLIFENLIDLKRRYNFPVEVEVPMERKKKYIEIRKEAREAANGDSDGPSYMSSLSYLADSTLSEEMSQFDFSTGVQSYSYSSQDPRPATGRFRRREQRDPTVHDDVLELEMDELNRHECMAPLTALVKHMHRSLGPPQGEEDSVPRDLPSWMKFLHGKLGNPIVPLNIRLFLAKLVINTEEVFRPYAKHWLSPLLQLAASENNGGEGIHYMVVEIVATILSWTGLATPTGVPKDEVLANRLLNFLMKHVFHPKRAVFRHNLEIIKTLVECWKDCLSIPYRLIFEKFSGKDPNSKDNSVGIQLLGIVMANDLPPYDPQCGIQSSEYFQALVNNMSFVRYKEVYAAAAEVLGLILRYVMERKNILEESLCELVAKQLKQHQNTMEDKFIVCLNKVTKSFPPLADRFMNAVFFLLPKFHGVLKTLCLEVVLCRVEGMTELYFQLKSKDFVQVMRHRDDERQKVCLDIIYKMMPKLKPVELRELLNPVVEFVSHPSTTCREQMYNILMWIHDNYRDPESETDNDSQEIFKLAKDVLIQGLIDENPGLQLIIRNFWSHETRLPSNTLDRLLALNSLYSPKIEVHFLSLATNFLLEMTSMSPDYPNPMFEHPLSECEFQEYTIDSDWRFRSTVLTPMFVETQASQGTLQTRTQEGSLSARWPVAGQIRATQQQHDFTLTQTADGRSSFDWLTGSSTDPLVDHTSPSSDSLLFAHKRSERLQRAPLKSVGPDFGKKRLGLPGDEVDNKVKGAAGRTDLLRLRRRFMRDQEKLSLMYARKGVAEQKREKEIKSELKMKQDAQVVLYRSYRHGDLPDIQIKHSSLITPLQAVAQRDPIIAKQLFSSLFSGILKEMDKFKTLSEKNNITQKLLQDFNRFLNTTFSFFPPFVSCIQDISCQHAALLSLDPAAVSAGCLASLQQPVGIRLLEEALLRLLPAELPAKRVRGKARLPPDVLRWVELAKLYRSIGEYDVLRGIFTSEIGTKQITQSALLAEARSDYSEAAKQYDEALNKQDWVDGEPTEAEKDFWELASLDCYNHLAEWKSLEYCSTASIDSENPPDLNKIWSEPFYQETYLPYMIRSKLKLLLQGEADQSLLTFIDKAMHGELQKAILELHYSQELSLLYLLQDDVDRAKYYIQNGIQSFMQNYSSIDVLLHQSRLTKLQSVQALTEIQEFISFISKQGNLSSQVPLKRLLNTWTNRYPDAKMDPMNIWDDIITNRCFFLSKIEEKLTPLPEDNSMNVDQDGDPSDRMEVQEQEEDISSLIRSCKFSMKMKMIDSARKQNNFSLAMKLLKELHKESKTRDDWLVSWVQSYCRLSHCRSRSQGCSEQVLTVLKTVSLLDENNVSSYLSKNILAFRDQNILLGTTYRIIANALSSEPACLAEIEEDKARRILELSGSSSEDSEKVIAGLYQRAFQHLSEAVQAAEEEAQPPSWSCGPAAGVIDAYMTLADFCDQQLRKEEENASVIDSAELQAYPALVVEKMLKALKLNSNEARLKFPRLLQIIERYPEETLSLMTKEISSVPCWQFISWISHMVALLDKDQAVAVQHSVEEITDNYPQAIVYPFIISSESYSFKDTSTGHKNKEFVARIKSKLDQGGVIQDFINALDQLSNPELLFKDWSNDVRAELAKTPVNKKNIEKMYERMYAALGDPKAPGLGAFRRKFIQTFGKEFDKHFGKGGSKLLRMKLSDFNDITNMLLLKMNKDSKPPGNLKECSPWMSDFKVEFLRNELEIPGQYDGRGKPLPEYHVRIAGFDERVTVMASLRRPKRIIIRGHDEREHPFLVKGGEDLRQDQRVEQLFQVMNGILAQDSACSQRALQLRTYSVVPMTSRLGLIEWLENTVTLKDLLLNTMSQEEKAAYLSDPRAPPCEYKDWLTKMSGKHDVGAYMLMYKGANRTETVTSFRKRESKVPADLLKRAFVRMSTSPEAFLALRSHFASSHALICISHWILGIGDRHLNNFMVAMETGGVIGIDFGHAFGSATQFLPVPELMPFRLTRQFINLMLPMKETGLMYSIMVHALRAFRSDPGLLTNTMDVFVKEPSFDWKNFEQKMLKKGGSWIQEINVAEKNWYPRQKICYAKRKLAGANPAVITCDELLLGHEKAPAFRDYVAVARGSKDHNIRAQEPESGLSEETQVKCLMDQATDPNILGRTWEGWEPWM

What was measured:
[1] = target: T1, GST-tagged FLCN (folliculin) (human) (UniProt Q8NFG4); assay: pull-down; GST-FLCN in HEK293 lysate held on glutathione-Sepharose 4B beads, 4°C, 3 h; washed 5 times in BHD lysis buffer with 300 mM NaCl for DNA-PKcs (250 mM for all other proteins); eluted with 10 mM glutathione; endogenous proteins detected by western blot
T1 sequence: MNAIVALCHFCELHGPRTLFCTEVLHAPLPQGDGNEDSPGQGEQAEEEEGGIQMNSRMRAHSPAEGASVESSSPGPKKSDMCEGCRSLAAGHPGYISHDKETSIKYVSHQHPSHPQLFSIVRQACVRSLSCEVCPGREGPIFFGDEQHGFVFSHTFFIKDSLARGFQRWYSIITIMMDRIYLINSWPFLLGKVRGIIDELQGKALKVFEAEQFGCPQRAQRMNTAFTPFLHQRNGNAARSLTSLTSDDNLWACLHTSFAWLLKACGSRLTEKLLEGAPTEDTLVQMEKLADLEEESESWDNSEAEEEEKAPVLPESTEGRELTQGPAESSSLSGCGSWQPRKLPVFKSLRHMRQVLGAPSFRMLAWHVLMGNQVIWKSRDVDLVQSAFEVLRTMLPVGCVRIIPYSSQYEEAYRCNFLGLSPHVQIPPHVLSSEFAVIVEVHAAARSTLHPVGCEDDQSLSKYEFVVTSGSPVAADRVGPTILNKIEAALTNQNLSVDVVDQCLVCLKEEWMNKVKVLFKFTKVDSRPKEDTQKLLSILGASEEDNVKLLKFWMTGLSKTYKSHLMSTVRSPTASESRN

[2] = target: T1, GST-tagged FLCN (folliculin) (human); assay: condition: only cells irradiated (5 or 10 Gy) 1 or 4 h before lysis; pull-down; GST-FLCN overexpressed in HEK293 cells that were subjected to IR (5 or 10 Gy) and left for 1 or 4 h prior to lysis; GST-FLCN purified, endogenous DNA-PKcs detected via western blotting
[3] = target: T2, endogenous FLCN (folliculin) (human (endogenous; the cell line of Fig. 5B is not stated, the paper's cell lines HEK293 and HK2 are human)) (UniProt Q8NFG4); assay: co-IP; endogenous FLCN immunoprecipitated with an antibody against N-terminal FLCN; endogenous DNA-PKcs detected via western blotting
T2 sequence: T1 sequence

[4] = target: T3, HA-tagged FLCN wild type (human) (UniProt Q8NFG4); assay: co-IP; HA-FLCN constructs overexpressed in HEK293 cells; precleared lysates, anti-HA antibodies 2 h at 4°C, protein G-Sepharose; endogenous DNA-PKcs detected via western blotting
T3 sequence: T1 sequence

[5] = target: T4, HA-tagged FLCN H429X (human) (UniProt Q8NFG4); assay: as above
T4 sequence: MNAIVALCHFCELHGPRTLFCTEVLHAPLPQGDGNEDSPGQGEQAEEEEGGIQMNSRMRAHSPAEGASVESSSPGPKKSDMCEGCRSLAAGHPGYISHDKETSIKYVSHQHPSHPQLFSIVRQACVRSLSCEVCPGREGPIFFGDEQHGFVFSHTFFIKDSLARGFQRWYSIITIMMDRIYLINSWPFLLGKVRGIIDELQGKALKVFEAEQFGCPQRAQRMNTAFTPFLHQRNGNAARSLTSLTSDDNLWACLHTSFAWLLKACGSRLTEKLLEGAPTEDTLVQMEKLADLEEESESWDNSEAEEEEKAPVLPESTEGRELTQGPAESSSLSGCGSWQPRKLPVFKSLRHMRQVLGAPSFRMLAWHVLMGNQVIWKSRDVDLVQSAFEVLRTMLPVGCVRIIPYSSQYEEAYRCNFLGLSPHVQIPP

[6] = target: T5, HA-tagged FLCN Y463X (human) (UniProt Q8NFG4); assay: as above
T5 sequence: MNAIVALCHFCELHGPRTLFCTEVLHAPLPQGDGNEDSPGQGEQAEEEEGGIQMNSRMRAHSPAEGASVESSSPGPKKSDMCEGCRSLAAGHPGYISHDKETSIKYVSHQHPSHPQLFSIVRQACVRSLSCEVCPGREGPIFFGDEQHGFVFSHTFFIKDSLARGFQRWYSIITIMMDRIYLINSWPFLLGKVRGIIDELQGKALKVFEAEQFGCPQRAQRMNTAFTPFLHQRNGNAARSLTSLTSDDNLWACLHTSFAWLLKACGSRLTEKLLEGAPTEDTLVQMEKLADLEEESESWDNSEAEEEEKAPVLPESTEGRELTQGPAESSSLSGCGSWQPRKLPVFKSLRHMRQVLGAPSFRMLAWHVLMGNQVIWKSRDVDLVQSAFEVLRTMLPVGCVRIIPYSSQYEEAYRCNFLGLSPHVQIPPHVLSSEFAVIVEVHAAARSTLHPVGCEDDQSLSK

binding [1]	binding [2]	binding [3]	binding [4]	binding [5]	binding [6]	Substance
no binding	–	–	–	–	–	ATR (from UniProt Q13535 1-2644)
binds	no binding	binds	binds	binds	binds	DNA-dependent protein kinase catalytic subunit (DNA-PKcs) (from UniProt P78527 1-4128)
